Reference: PMC4336329 (PLoS ONE, 2015)
The campaign covered roughly 310,000 compounds. About 14,000 (4.5%) showed an effect of 50% or more. Effects have a minus sign here. This is one part of the list.

molecular target: human ether-à-go-go-related gene (hERG) potassium channel (human, UniProt Q12809); experiment: primary screen, population patch clamp on CHO cells stably expressing hERG
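Also: peak tail current of the secondary pulse compared with the same well before compound.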

human ether-à-go-go-related gene (hERG) potassium channel, sequence (Q12809 whole entry, looked up): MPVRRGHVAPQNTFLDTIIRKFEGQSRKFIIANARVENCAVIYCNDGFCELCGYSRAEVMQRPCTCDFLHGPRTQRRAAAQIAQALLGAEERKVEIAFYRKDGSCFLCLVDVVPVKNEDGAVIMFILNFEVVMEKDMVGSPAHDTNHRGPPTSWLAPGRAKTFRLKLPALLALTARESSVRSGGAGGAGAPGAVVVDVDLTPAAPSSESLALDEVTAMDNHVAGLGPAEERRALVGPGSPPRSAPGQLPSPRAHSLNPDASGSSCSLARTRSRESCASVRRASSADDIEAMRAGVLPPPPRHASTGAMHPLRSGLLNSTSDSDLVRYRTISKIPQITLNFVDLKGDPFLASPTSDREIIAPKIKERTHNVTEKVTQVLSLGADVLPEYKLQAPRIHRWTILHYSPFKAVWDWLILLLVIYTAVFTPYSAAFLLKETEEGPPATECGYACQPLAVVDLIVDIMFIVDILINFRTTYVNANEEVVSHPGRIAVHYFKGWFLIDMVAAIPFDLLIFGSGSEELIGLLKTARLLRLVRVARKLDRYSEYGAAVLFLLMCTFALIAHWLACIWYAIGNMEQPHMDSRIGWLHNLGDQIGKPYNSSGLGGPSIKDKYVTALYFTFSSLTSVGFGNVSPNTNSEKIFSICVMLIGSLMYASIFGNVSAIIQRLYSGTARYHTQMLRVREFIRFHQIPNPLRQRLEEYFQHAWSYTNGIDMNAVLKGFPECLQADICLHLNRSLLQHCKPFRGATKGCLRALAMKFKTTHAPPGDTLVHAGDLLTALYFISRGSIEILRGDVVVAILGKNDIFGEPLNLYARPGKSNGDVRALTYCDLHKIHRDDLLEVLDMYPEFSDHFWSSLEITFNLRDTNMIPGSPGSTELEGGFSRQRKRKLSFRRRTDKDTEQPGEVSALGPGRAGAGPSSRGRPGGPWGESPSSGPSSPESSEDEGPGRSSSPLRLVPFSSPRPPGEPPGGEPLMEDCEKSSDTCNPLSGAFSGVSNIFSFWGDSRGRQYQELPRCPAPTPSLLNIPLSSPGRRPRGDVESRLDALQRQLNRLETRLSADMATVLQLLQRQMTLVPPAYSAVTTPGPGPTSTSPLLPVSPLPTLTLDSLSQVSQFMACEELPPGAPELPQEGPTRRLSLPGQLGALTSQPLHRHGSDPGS

In order of rising “hERG current change (%, negative = inhibition) at 10uM” value:
1. Cc1ccc(C(=O)Nc2ccccc2N2CCOCC2)cc1S(=O)(=O)N1CCOCC1  -55.3%
2. COc1cc(/C=N/NC(=O)c2ccncc2)ccc1OC(=O)c1ccccc1Cl  -50.8%
3. COc1ccc(S(=O)(=O)N2CCN(C(=O)CCC3CCCC3)CC2)cc1  -42.7%
4. O=C(COC(=O)CCc1ccc(S(=O)(=O)N2CCOCC2)cc1)Nc1ccc(Cl)cn1  -33.4%
5. O=c1oc2c(CN3CCCCC3)c(O)ccc2c2c1CCCCC2  -32.2%
6. O=C(NCCCc1ccccc1)c1cccc(S(=O)(=O)N2CCOCC2)c1  -30.6%
7. CCOCCCNC(=O)CN1C(=O)/C(=C\c2ccc(C)cc2)Sc2ccccc21  -29.2%
8. C/C=C(\C)CN1CCC(n2nccc2NC(=O)c2ccc3c(c2)OCO3)CC1  -26.5%
9. Cc1ccc2c(c1)CC1(CN2C)C(=O)NC(=O)N(c2cccc(C)c2C)C1=O (stereo not shown)  -15.4%
10. C=CCNS(=O)(=O)c1ccc2c(c1)n(C)c(=O)n2C  -11.5%
11. CCO[C@H]1OC(C(=O)NC2CC2)=C[C@@H](c2ccc(Br)cc2)[C@@H]1CCCO  -10.7%
12. Cc1ccc(-c2nnc(SCC(=O)Nc3ccc(N4CCOCC4)cc3)o2)cc1  -8.4%
13. CCOC(=O)C1CCCN(c2c(NCCc3cccc(C)c3)c(=O)c2=O)C1 (stereo not shown)  -7.78%
14. O=C(Cc1ccc(Cl)cc1)NC1CCS(=O)(=O)C1 (stereo not shown)  -6.2%
15. O=C(Nc1nnc(-c2ccco2)o1)c1cccc2ccccc12  -4.76%
16. COc1ccc(OCCSc2nc(N)cc(N)n2)cc1  -4.16%
17. O=C(CNS(=O)(=O)c1cccc2nsnc12)NCc1ccc(Cl)cc1  -2.23%
18. CCOC(=O)C1=C(C)N=C2SC(C(=O)OC)=CC(=O)N2C1c1cc(OC)c(OC)c(OC)c1 (stereo not shown)  -0.0413%
19. COc1cc(/C=C2\CCCc3c2nc2ccccc2c3C(=O)O)cc(OC)c1O  1.84%
20. C/C(=N\NC(=O)c1nnn(-c2nonc2N)c1-c1cccs1)c1ccc(O)cc1  1.86%
21. Cc1ccc(S(=O)(=O)CC(=O)Nc2ccc(S(=O)(=O)Nc3onc(C)c3C)cc2)cc1  1.99%
22. Cc1ccc(NC(=O)c2ccccc2[N+](=O)[O-])nc1  2.35%
23. O=C(COC(=O)c1ccc(S(=O)(=O)N2CCOCC2)cc1)NCc1cccs1  2.5%
24. Cc1ccc(NC(=O)Nc2c(C)n(C)n(-c3ccccc3)c2=O)cc1  3.37%
25. COCc1[nH]nc2c1C(c1ccnc3ccccc13)C(C#N)=C(N)O2 (stereo not shown)  3.45%
26. COc1ccccc1/C=C/C(=O)Nc1ccc(S(=O)(=O)Nc2cc(C)on2)cc1  3.53%
27. CC(C)N(c1ccccc1)c1ccc(NC(=O)C2CCCO2)cc1 (stereo not shown)  4.07%
28. CCCCNC(=O)C1CCN(C(=O)Nc2ccc(C)cc2)CC1  4.75%
29. Cc1ccnc(NC(=O)c2ccc3[nH]c(=O)c(=O)[nH]c3c2)c1  5.34%
30. CC1CCCC(C)N1CCCNC(=O)C1CCCN(c2ncnc3c2nc2n3CCCCC2)C1 (stereo not shown)  8.21%
31. COc1ccc(C2/C=C\CN(S(=O)(=O)c3ccc4ccccc4c3)CC(=O)N2Cc2ccc(F)cc2)cc1 (stereo not shown)  8.33%
32. Cc1ccc(CN2C(=O)C(C)Nc3ncnc(N4CCOCC4)c32)cc1.O=C(O)C(F)(F)F (stereo not shown)  8.87%
33. C/C(=N/Oc1nc(C)cc(C)n1)c1ccccc1  8.93%
34. Cc1cccc(NCN2C(=O)c3ccccc3C2=O)c1  9.07%
35. COc1ccc(-c2cnnc(N/N=C/c3ccc(O)cc3)n2)cc1  9.11%
36. COC(=O)C1CCN(C(=O)C2CCN(C(=O)[C@@H](NS(=O)(=O)c3ccc(C)cc3)C(C)C)CC2)CC1  10.4%
37. Cc1cc2nc(-c3ccncc3)cc(C(F)(F)F)n2n1  10.8%
38. CCCCn1c(N)c(N(CCC(C)C)C(=O)C2CC(=O)N(Cc3ccc(C)cc3)C2)c(=O)[nH]c1=O (stereo not shown)  12.1%
39. Cc1ccc(C(=O)NNC(=O)c2ccc(-n3cncn3)c([N+](=O)[O-])c2)cc1  12.2%
40. CCc1c(C)sc2nc3c(C(=O)N4CCOCC4)cc(C(=O)c4cc(F)ccc4O)cn3c(=O)c12  12.7%
41. O=c1[nH]c2ccc(NC(=S)NC3CCCCC3)cc2[nH]1  13.7%
42. CC(C)(C)n1ncc2c(=O)n(CC(=O)NCc3ccccc3)cnc21  14%
43. O=C(CCCN1C(=O)/C(=C/c2cccc(Br)c2)SC1=S)Nc1cccnc1  14.1%
44. Cc1cc(C)nc(CCNC(=O)CC2C(=O)NCCN2Cc2ccc(F)cc2Cl)n1 (stereo not shown)  14.1%
45. O=C(N/N=C/c1ccc([N+](=O)[O-])s1)c1ccccc1Br  14.6%
46. N#Cc1cc(N)ccc1-n1cccc1  14.8%
47. CCC1Oc2ccccc2N(CC(=O)NCCCN2CCCC2)C1=O (stereo not shown)  15.9%
48. COc1cc(SC)ccc1C(=O)NC(C)C  16.3%
49. COc1ccc2c(c1)nc(SCC(C)O)n2C (stereo not shown)  18%
50. CC(=O)/C(C#N)=C1\NC(=O)C(Cc2ccc(F)cc2)S1 (stereo not shown)  19.1%
51. COC(=O)CNC(=O)C1(C)C=CCN1C(=O)c1ccccc1 (stereo not shown)  19.5%
52. CCOc1ccc(/C=N/NC(=O)CCC(=O)Nc2ccc(F)cc2)cc1  19.6%
53. CC(=O)NNc1cc(N2CCOCC2)nc(N2CCOCC2)n1.Cl  19.6%
54. COc1ccc(CCC(=O)NC(C)c2ccccc2)cc1OC (stereo not shown)  20.8%
55. Cc1c(O[C@@H]2O[C@H](CO)[C@@H](O)[C@H](O)[C@H]2O)ccc2c1oc(=O)c1ccccc12  22.5%
